In patent publication US20250281631A1, “ANTIBODY-DRUG CONJUGATES AND PREPARATION METHODS AND USE THEREOF” (SICHUAN KELUN-BIOTECH BIOPHARMACEUTICAL CO., LTD, priority 2022, published 2025):

Columns and labels:
[1] = test system: MDA-MB-453 cells; test: Endocytosis effects of anti-human HER3 antibody and ADC (pHrodo, flow cytometry); format: cell-based; settings: MDA-MB-453 cells, pHrodo, 24 hours
Procedure: 9. Detection of Endocytosis Effects of Anti-Human HER3 Antibody Conjugates
The endocytosis effects of anti-human HER3 ADC in MDA-MB-453 cells were detected by flow cytometry (Beckman, model Cytoflex).
Adherent cells were digested with Trypsin-EDTA (0.25% Shanghai Basal Media Technologies) solution, counted, and adjusted the cell concentration to 1×10^5/ml with complete culture medium, then 100 μl of the cell suspension was added to the 96-well plate (the cell number is 1× 10^4/well), the 96-well plate was incubated in constant temperature CO2 incubator at 37° C. for 24 hours. Then took out the 96-well plate, discarded the medium, and added 50 μl of fresh complete culture medium to each well, the bi-specific antibody and control antibody were diluted with complete culture medium by serial dilution, the final concentrations were 0.55, 1.64, 4.94, 14.81, 44.44, 133.33, 400, 1200 ng/ml, 8 concentrations in total; PHrodo solution (Thermo) was diluted with complete culture medium to 12 μg/ml (the final concentration of PHrodo is 3 μg/ml); the serial diluted antibody candidates and diluted PHrodo solution were 1:1 mixed (30 μl 30 μl), incubated at room temperature in dark for 30 minutes; add 50 μl antibody candidate and PHrodo solution mixture to 96-well bplace, cultured at 37° C., 5% CO2 for 24 hours; took out the 96-well plate, discarded medium, washed once with sterile PBS, then cells were digested with 100 μl/well Trypsin-EDTA (0.25%), neutralized with 100 μl complete culture medium; then cells were separated by piping up and down and detected by flow cytometry. Data processing: the average fluorescence signal values were exported, and then input into GraphPad Prism 6 software to calculate EC50.

[2] = test system: MDA-MB-453 cells; test: In vitro cytotoxicity of anti-human HER3 ADCs (second test, Table 39); format: cell-based
Description: 10. In Vitro Cytotoxicity of Anti-Human HER3 Antibody-Drug Conjugates

[3] = 37° C., 1 to 168 hours
Procedure: 4. Detection of Plasma Stability of Anti-Human HER3 Antibody-Drug Conjugate
3.59 μl of 20.9 mg/ml 22B6-A-07-A-1 ADC sample was precisely weighted and transferred into EP tubes, added with 496 μl of human, cynomolgus monkey and mouse blank plasma respectively, and mixed well to obtain human, cynomolgus monkey and mouse plasma samples containing 22B6-A-07-A-1 ADC. The samples were placed in a constant temperature incubator and incubated at 37° C., and 50 μl of each sample was taken at 1, 3, 6, 24, 48, 96 and 168 hours, added with 200 μl of 0.5% formic acid-acetonitrile to precipitate protein, and centrifuged at 13,000 rpm at 4° C. for 10 min, then the supernatant was taken and stored at −80° C. After all samples were collected, the concentrations of the cytotoxic drugs were detected by LC-MS/MS.

[4] = test system: HEK293T negative cells coexisting with HEK293T-HER3 positive cells; test: Bystander effect test, labeled HEK293T co-cultured with HEK293T-h HER3; format: cell-based; settings: negative cells HEK293T and positive cells HEK293T-HER3 coexisted; 4 days
Procedure: 3. Bystander Effect of Anti-Human HER3 Antibody-Drug Conjugates
HEK293T and HEK293T-h HER3 cells were digested with 0.25% Trypsin-EDTA (manufacturer: Gibco), counted, and an appropriate amount of the cells were taken, washed twice with 1×PBS, the cell density was adjusted to 1×10^6 cells/ml, and then Cell Trace Violet was added to reach a final concentration of 5 μM for labeling, mixed well and incubated in an incubator for 20 min, then the cells were washed with growth medium and counted, plated on 24-well plates (500 μl/well) according to the following ratios: HEK293T-labeled: HEK293T=4000:12000 cells/well, HEK293T-labeled: HEK293T-h HER3=4000:12000 cells/well, HEK293T-h HER3-labeled: HEK293T-h HER3=4000:12000 cells/well, and cultured overnight at 37° C., 5% CO2;
On the next day, ADC was diluted with growth medium to reach concentrations of 20 nM, 4 nM, and 0.8 nM, then 500 μl of the diluted ADC was taken and added to the corresponding 24-well plates containing cells, and the plates were placed and cultured in an incubator at 37° C., 5% CO2 for 4 days;
HEK293T and HEK293T-h HER3 cells were digested with 0.25% Trypsin-EDTA, added to a growth medium containing PI with a final concentration of 3 μM, mixed well, incubated at room temperature for 15 min, and then detected by flow cytometry (Thermo, model: Attune NxT).

B1: 22B6-A-07-A-1: ADC of antibody 22B6D2-hIgG1 conjugated to drug-linker A-07-A, DAR 7.99 (conjugate)
heavy: EVHLVESGGGVVQPGRSLRLSCATSGFTFRSYGMHWVRQAPGKGLEWVAVIWYDGSNKYYADSVKGRFTISRDISKNTLYLQMNSLTAEDTAVYYCARYYYDSNGYYDAFDIWGQGTMVTVSSASTKGPSVFPLAPSSKSTSGGTAALGCLVKDYFPEPVTVSWNSGALTSGVHTFPAVLQSSGLYSLSSVVTVPSSSLGTQTYICNVNHKPSNTKVDKRV[in this place human IgG1 Fc]
light: DIQLTQSPSFLSASVGDRVTITCRASQGISNYLAWYQQKPGKAPKLLIFAASTLQSGVPSRFSGSGSGAEFTLTISSLEPEDFATYYCQQLNSYPITFGQGTRLEIKRTVAAPSVFIFPPSDEQLKSGTASVVCLLNNFYPREAKVQWKVDNALQSGNSQESVTEQDSKDSTYSLSSTLTLSKADYEKHKVYACEVTHQGLSSPVTKSFNRGEC
EC50 endocytosis effects [1]: 0.01222 µg/mL
IC50 ([2]; MDA-MB-453 cells, 6 days, CCK8, Table 39): 4 nM
killing effects in MDA-MB-453 cells ([2]; result in words): significant killing effects
shedding of the cytotoxic drugs ([3]; cynomolgus monkey plasma): ≤ 5%
shedding of the cytotoxic drugs ([3]; human plasma): ≤ 5%
shedding of the cytotoxic drugs ([3]; mouse plasma): ≤ 5%
bystander killing of negative cells [4]: significant killing effect on the negative cells

Read-outs that look alike come from different tables or passages of the source.
